Reference: PubChem BioAssay (NCI)
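Cultured in 96-well plates, cells were exposed to test compound for 48 hours across five concentrations. GI50 marks 50% less growth. The concentration for full growth arrest is given as TGI.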

System: NCI-H322M lung
Experiment: NCI tumour cell line growth inhibition, 48 h

Compound: COc1ccc(/C=C/C(=O)c2ccc(S(=O)(=O)NCCNc3nc(Nc4ccc(F)cc4)nc(N(C)C)n3)cc2)cc1
- GI50: 10.2 µM
- TGI: > 100 µM
